Patent publication US6262067A, “Polymorphs of a crystalline azo-bicyclo 2,2,2 OCT-3-yl amine dihydrochloride and their pharmaceutical compositions” (priority 2000, dated 2001)

Assay: Thermal water loss and degradation (TGA/DTA, DSC, fusion microscopy)
Format: physicochemical

Structure (SMILES): COc1ccc(C(C)C)cc1CN[C@H]1C2CCN(CC2)[C@H]1C(c1ccccc1)c1ccccc1 [Form II, (2-Benzhydryl-1-azo-bicyclo 2,2,2oct-3-yl)-(5-isoproyl-2-methoxybenzyl)-amine]
- DSC hydrates off temperature (first hydrate-off event): ~ 130 °C
- DSC hydrates off temperature (second hydrate-off event): ~ 155 °C

Some values that stand alone complete this part of the results.
